About 540 (0.36%) of roughly 150,000 compounds showed an effect of 50% or more. Some of the results follow.
test system: Plasmodium falciparum; experiment: Primary screen in NF54 nanoGlo assay, in single point, at 2uM, 72h; a lower Z score goes with more inhibition; format: functional, Erythrocyte; settings: timepoint 72 hour

| Structure (SMILES) | % Inhibition [%] | Z score |
| --- | --- | --- |
| O=C(Nn1cnnc1)c1cccc2ccccc12 | -10 | 1.25 |
| CCc1ccc(CN(C)CC(=O)Nc2cnn(C)c2C)nc1 | -3 | 0.46 |
| Cc1cc2nc3n(c(=O)c2n1CC(=O)NCCc1ccc(Cl)cc1)CCCCC3 | -5 | 0.55 |
| COc1ncnc2c1ccc(=O)n2CCCO | -10 | 1.7 |
| Cc1ccc(/N=C(\Nc2ccc(C)cc2)[C@@H](C)CN(C(=O)c2ccccc2)c2ccc(C)cc2)cc1 | 4 | -0.46 |
| O=C1[C@@H]2Cc3c([nH]c4ccccc34)CN2C(=O)CN1Cc1ccc(Cl)cc1 | -8 | 1.02 |
| COc1ccc(NC(=O)c2cc(C)n(Cc3ccco3)c2C)cc1S(=O)(=O)N1CCOCC1 | -15 | 2.34 |
| COc1ncccc1C(=O)Nc1nnc[nH]1 | 6 | -0.92 |
| O=C(C(c1ccccc1)c1ccccc1)N1CC[C@H](S(=O)(=O)c2ccc(Cl)cc2)C1 | 7 | -1.13 |
| CC1CCN(CCCS(C)(=O)=O)C1c1cccc(F)c1 (stereo not drawn) | 0 | 0.07 |
| Cc1ccc(N(C)S(=O)(=O)c2cc(-c3nc(C)cs3)sc2C)cc1 | -2 | 0.2 |
| Cc1noc(C2(O)CCN(C(=O)C3CCCN3c3ccccc3)C2)n1 (stereo not drawn) | -6 | 0.66 |
| Cc1c(C(C)C)nc(N)c(C#N)c1-c1c[nH]cn1 | 5 | -0.99 |
| Cc1cccc(Cn2cnc3c2c(=O)n(C[C@H]2CCCO2)c(=O)n3-c2ccc(F)cc2F)c1 | -21 | 2.08 |
| CCN1CCN(C[C@@H]2CN(Cc3cccc(C(F)(F)F)c3)C[C@@H]2CO)CC1 | -1 | 0.23 |
| Cc1noc(C)c1S(=O)(=O)N1CCCCCCn2c(nnc2-c2ccc(F)cc2)CC1 | -7 | 0.87 |
| OCC1CCCCCC1NCc1ccon1 (stereo not drawn) | 4 | -0.51 |
| Cn1ncnc1CCNc1cc(-c2ccccc2F)nc2ccnn12 | -5 | 0.61 |
| CC(C)c1noc(CNC2CCOC2c2ccc(Cl)c(F)c2)n1 (stereo not drawn) | -6 | 0.87 |
| CC(=O)N1CCCN(c2nnnn2CC(C)(C)C2CCCC2)CC1 | 5 | -0.59 |
| O=C(c1cc(Cn2cc(Br)cn2)on1)N1CCNCC1 | 5 | -0.64 |
| COC(=O)NCC(=O)Oc1ccc(OCC2CC2)cc1 | -9 | 0.86 |
| Cc1ccc(C(C)NC(=O)N(CC(O)c2ccc(F)cc2)C2CC2)o1 (stereo not drawn) | -13 | 1.78 |
| CC1CCCC1NC(=O)CCCNC(=O)OC(C)(C)C (stereo not drawn) | -9 | 1.81 |
| COc1ccccc1-c1cc(O)n(-c2nc(C)cc(C)n2)n1 | 31 | -3.53 |
| COc1ccc(C2CC(=O)CC(c3ccc(OC)cc3)C2(C#N)C(N)=O)cc1 (stereo not drawn) | -8 | 1.22 |
| C[C@@]1(c2ccc(Cl)s2)NC(=O)N(Cc2ccccc2)C1=O | -5 | 0.85 |

| Structure (SMILES) | % Inhibition [%] | Z score |
| --- | --- | --- |
| CCCn1ncc(C(=O)N2CCc3[nH]cnc3[C@H]2c2ccccn2)c1C | 1 | -0.15 |
| O=C1C(NC2CCCn3ncnc32)CCN1c1ccc(F)c(Cl)c1 (stereo not drawn) | -4 | 0.49 |
| CN1CCC(N(Cc2ccncc2)C(=O)Nc2cccc(C#N)c2)CC1 | -5 | 0.66 |
| CNc1nc(N2CCC(C(=O)O)(n3cccn3)CC2)nc2c1CCC2 | 14 | -1.82 |
| CCS(=O)(=O)N1CCC[C@H]1C(=O)OC | 7 | -1.35 |
| Cc1ccc(C)c(NS(=O)(=O)c2cc3[nH]c4c(c3cc2C)C(=O)CCC4)c1 | -12 | 2.3 |
| CC(C)N(C[C@H]1CCCNC1)C(=O)OC(C)(C)C | -8 | 0.84 |
| O=C(NCc1cnccn1)c1ccnc(N2CCN[C@H](c3ccccc3)C2)c1 | 0 | -0.08 |
| COCCNC(=O)CN(C)c1ncccc1F | -9 | 0.8 |
| Cc1ccc(C)c(C2CCN(C(=O)Nc3cnn(CCF)c3)CC2)c1 | 6 | -0.93 |
| Cc1nn(CCO)c(C)c1-n1ccnc1-c1ccncc1 | -11 | 1.76 |
| CC(C)c1ccc(CCCNS(N)(=O)=O)cc1 | 7 | -0.97 |
| CNC(=O)C[C@H](C)N(C)Cc1cc(OC)ccn1 | 0 | -0.01 |
| CC(C)c1ccc(C(=O)NC2CCOC(c3ccc(F)cc3)C2)nc1 (stereo not drawn) | 3 | -0.51 |
| CCNC(=O)C[C@H]1Cc2ccccc2C2(CCN(C(=O)COC)CC2)O1 | -2 | 0.3 |
| Nc1cc(C(=O)O)ccc1Br | 1 | -0.15 |
| O=c1c(S(=O)(=O)N2CCOCC2)cccn1Cc1cc(F)cc(F)c1 | -6 | 0.65 |
| O=C(Cn1nc(N2CCOCC2)c2ccccc2c1=O)Nc1ccc2c(c1)OCO2 | -9 | 1.28 |
| CC(C)c1ccc(NC(=O)Cn2cnc3nc(N4CCOCC4)sc3c2=O)cc1 | -5 | 0.59 |
| Cn1cccc1CN1CCCN(S(=O)(=O)c2ccccc2)CCC(=O)NCC1 | -5 | 0.61 |
| Cn1cccc1CN1CCC(CC2CC2)(NC(=O)c2ccccc2)CC1 | -6 | 1.24 |
| Cc1ccc(NS(=O)(=O)c2cc(-c3noc(C(=O)N4CCOCC4)n3)cs2)nc1 | -21 | 2.38 |
| Clc1ccc(COc2ccccc2-c2ccn(Cc3ccc(Cl)c(Cl)c3)n2)cc1 | -6 | 0.88 |
| Cc1noc(C)c1Cc1noc(CCCOCc2ccccc2)n1 | -9 | 1.29 |
| COc1ccc(NC(=O)CCNC(=O)[C@H]2O[C@@H]3OC(C)(C)O[C@@H]3[C@H]3OC(C)(C)O[C@H]32)cc1 | 1 | -0.12 |
| Cc1cc2c(c(-c3cnccn3)c1)O[C@@H](CNC(=O)/C(F)=C/c1ccccc1)C2 | 14 | -1.78 |
| C[C@H]1CN(C)CCN1C(=O)c1cnc(-c2ccccc2)nc1 | -4 | 0.35 |

Reference: ChEMBL document CHEMBL4888484, “Replenishing the malaria drug discovery pipeline: Screening and hit evaluation of the MMV Hit Generation Library 1 (HGL1) against asexual blood stage Plasmodium falciparum ,using a nano luciferase reporter read-out” (2022)
